# Data taken from paper PMC6433973.
# No constants are given. Whether binding was seen depends on the method and setting. For part of these data: Binding seen in cells or lysates may run through a third protein. Some entries that bind do so weakly or less than the wild type.
# T1: endogenous FOXM1 (human (endogenous in HeLa and C33A)) (UniProt Q08050)
# T1 sequence: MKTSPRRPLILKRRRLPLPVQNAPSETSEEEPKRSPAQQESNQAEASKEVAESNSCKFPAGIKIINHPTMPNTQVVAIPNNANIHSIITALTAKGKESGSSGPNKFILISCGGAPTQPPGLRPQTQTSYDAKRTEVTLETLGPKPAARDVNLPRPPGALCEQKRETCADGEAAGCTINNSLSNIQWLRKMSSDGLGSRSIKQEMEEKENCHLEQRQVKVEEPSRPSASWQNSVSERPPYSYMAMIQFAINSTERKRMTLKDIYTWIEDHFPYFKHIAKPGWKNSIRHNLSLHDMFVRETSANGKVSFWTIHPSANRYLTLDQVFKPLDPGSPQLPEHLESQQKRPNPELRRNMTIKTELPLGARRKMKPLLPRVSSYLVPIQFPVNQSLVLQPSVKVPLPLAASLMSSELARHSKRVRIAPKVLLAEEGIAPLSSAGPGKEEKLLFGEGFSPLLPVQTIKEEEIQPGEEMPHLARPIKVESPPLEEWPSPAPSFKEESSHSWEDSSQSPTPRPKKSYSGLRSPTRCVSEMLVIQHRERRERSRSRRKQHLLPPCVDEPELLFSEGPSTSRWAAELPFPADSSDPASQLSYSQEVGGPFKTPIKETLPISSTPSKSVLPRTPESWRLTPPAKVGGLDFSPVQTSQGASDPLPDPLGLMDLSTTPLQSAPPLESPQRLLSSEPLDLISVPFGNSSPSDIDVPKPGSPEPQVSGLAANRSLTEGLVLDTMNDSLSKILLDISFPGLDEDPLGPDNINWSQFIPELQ
# T2: EPS8 bait encompassing the N-terminus up to amino acid 370 (Gal4 two-hybrid bait) (human) (UniProt Q12929)
# T2 sequence: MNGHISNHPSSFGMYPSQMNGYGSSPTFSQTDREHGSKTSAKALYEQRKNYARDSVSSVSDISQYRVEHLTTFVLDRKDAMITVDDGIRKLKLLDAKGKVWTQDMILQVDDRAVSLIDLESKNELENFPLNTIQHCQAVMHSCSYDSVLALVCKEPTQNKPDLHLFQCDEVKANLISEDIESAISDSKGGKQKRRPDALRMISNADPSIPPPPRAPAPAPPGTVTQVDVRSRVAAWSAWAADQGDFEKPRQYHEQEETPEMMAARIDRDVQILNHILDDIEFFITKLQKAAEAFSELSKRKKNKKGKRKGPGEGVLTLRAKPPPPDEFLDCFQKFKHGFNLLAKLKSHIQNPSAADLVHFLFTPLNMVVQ
# T3: EPS8(2-264) (Gal4 two-hybrid bait) (human) (UniProt Q12929)
# T3 sequence: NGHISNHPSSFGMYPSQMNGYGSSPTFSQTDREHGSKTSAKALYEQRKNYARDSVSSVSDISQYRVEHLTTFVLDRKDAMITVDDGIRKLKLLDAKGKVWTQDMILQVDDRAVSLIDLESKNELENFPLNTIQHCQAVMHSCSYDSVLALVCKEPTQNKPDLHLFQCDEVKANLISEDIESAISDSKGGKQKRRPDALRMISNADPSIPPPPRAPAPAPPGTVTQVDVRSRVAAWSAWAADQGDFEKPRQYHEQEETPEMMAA
# T4: EPS8(2-528) (Gal4 two-hybrid bait) (human) (UniProt Q12929)
# T4 sequence: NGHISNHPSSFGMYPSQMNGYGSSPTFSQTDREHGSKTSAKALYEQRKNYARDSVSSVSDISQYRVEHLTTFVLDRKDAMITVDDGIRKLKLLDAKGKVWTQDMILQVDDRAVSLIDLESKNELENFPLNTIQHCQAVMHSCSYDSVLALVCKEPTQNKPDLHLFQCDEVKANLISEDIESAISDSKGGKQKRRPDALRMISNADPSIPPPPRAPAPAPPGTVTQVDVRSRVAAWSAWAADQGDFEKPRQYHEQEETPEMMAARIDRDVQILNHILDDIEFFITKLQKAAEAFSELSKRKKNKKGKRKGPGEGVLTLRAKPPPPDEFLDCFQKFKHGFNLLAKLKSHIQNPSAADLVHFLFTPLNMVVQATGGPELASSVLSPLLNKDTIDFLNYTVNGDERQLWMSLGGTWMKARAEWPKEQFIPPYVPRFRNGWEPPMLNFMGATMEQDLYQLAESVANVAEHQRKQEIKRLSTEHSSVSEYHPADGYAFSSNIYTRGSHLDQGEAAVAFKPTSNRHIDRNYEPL
# B1: full-length human FOXM1c (Gal4 two-hybrid prey) (protein, UniProt Q08050-1 1-763)
# chain: T1 sequence
# B2: full-length human FOXM1b (Gal4 two-hybrid prey) (protein, UniProt Q08050-2 1-748)
# chain: MKTSPRRPLILKRRRLPLPVQNAPSETSEEEPKRSPAQQESNQAEASKEVAESNSCKFPAGIKIINHPTMPNTQVVAIPNNANIHSIITALTAKGKESGSSGPNKFILISCGGAPTQPPGLRPQTQTSYDAKRTEVTLETLGPKPAARDVNLPRPPGALCEQKRETCADGEAAGCTINNSLSNIQWLRKMSSDGLGSRSIKQEMEEKENCHLEQRQVKVEEPSRPSASWQNSVSERPPYSYMAMIQFAINSTERKRMTLKDIYTWIEDHFPYFKHIAKPGWKNSIRHNLSLHDMFVRETSANGKVSFWTIHPSANRYLTLDQVFKQQKRPNPELRRNMTIKTELPLGARRKMKPLLPRVSSYLVPIQFPVNQSLVLQPSVKVPLPLAASLMSSELARHSKRVRIAPKVLLAEEGIAPLSSAGPGKEEKLLFGEGFSPLLPVQTIKEEEIQPGEEMPHLARPIKVESPPLEEWPSPAPSFKEESSHSWEDSSQSPTPRPKKSYSGLRSPTRCVSEMLVIQHRERRERSRSRRKQHLLPPCVDEPELLFSEGPSTSRWAAELPFPADSSDPASQLSYSQEVGGPFKTPIKETLPISSTPSKSVLPRTPESWRLTPPAKVGGLDFSPVQTSQGASDPLPDPLGLMDLSTTPLQSAPPLESPQRLLSSEPLDLISVPFGNSSPSDIDVPKPGSPEPQVSGLAANRSLTEGLVLDTMNDSLSKILLDISFPGLDEDPLGPDNINWSQFIPELQ
# B3: endogenous FOXM1 (protein, UniProt Q08050 1-763)
# chain: T1 sequence
# Columns and labels:
# [1] = target: T1, endogenous FOXM1 (human (endogenous in HeLa and C33A)); test: co-IP; C33A cell lysate, endogenous proteins; IP with anti-FOXM1 (C20), control rabbit anti-ETS2; blot for EPS8
# [2] = target: T1, endogenous FOXM1 (human (endogenous in HeLa and C33A)); test: co-IP; HeLa cell lysate, endogenous proteins; IP with anti-FOXM1 (C20) and blot for EPS8, and reverse IP with anti-EPS8 (610143) and blot for FOXM1; control antibodies anti-ETS2 and anti-p21
# [3] = target: T2, EPS8 bait encompassing the N-terminus up to amino acid 370 (Gal4 two-hybrid bait) (human); test: two-hybrid; Gal4-based Matchmaker system (Clontech); EPS8 constructs as bait in pGBT9, full-length FOXM1 as prey in pGAD424; growth on SC medium lacking leucine, tryptophan and histidine
# [4] = target: T3, EPS8(2-264) (Gal4 two-hybrid bait) (human); test: as above
# [5] = target: T4, EPS8(2-528) (Gal4 two-hybrid bait) (human); test: as above
# [6] = target: EPS8(2-590) (Gal4 two-hybrid bait) (human) (UniProt Q12929); test: as above
# [7] = target: full-length human EPS8 (Gal4 two-hybrid bait) (human) (UniProt Q12929); test: as above
# [8] = target: endogenous EPS8 (human (endogenous in HeLa and C33A)) (UniProt Q12929); test: co-IP; HeLa cell lysate, endogenous proteins; IP with anti-FOXM1 (C20) and blot for EPS8, and reverse IP with anti-EPS8 (610143) and blot for FOXM1; control antibodies anti-ETS2 and anti-p21
molecule,measurement,setting,value
endogenous EPS8 (from UniProt Q12929 1-822),binding,[1],binds
same,binding,[2],binds
B1,binding,[3],no binding
same,binding,[4],no binding
same,binding,[5],binds
same,binding,[6],binds
same,binding,[7],binds
B2,binding,[7],binds
B3,binding,[8],binds
